From patent US20250215105A1, “ANTI-CD39 ANTIBODY” (BrightPath Biotherapeutics Co., Ltd., priority 2022, published 2025)

What was measured:
human CD39 = biological target: T1, human CD39 (Homo sapiens, UniProt P49961); experiment: CD39 binding analysis (FCM) using human CD39-overexpressing cells; settings: 293T-hCD39 or Jurkat-hCD39 cells
T1 sequence (P49961 1-510): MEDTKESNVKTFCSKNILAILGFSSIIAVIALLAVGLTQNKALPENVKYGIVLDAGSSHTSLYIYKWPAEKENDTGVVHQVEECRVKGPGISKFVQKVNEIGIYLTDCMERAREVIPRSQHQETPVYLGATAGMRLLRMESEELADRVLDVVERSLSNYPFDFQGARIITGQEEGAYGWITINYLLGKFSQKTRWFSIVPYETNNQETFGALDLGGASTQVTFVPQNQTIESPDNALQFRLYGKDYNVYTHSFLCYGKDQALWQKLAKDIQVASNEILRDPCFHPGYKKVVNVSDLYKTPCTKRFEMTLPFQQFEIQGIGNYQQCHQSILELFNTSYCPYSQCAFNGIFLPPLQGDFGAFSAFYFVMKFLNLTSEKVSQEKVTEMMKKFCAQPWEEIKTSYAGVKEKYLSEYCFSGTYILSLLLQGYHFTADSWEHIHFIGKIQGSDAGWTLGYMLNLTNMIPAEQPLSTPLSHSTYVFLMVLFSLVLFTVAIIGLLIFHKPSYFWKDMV
Description: 3.1 CD39 binding analysis (FCM analysis) (using human CD39) Binding to target antigen-expressing cells was analyzed by FCM analysis using human CD39-overexpressing cells. The human CD39-overexpressing cells were generated using a lentiviral vector system (OriGene, PS100069). Lentiviral particles carrying the human CD39 gene (Gene ID: 953) as the target gene together with the puromycin resistance gene were generated and used to infect HEK293T or Jurkat cells therewith. Then, the cells were cultured in the presence of puromycin. HEK293T or Jurkat cells ([…] or Jurkat-hCD39) in which the target gene was integrated into the genome and which became positive for human CD39 were collected and used for FCM analysis. Test or isotype control antibodies at a final concentration of 2 μg/mL or at the concentrations indicated in the figure were reacted with 1×10^5 cells for 15 minutes at 4° C., followed by washing twice with 0.5% BSA, 2 mM EDTA, and D-PBS. After washing, a fluorescent-labeled secondary antibody (anti-human IgG Fc, HP6017) was added, and the cells were stained at 4° C. for 15 minutes under light-shielded conditions, followed by washing twice in a similar manner. After addition of 7AAD (BioLegend, 420404), fluorescence intensity was measured using a flow cytometer (FACSVerse, BD). Antibody binding was evaluated based on the fluorescence intensity obtained.

[1] = system: human lung cancer cell line NCI-H292; experiment: anti-tumor activity: NCI-H292 growth with stimulated PBMCs and ATP (IncuCyte); type: cell-based; settings: ATP 250 μM, antibody 10 μg/ml (FIG. 32)
Description: The human lung cancer cell line NCI-H292 having red fluorescent protein (RFP) was seeded on a 96-well plate and cultured overnight. The next day, after removal of the medium, IL-2 (Miltenyi, 130-097-745) at a final concentration of 30 IU as suspended in X-VIVO-15™ medium (Lonza, 04-418Q) and an anti-human CD39 antibody or isotype control antibody at a final concentration of 0.3 to 100 μg/mL were added and the mixture was incubated at 37° C. for 30 minutes. Then, PBMCs from healthy volunteers stimulated with Dynabeads™ Human T-Activator CD3/CD28 (VERITAS, DB11131) for 10 days were added at an E/T ratio of 2 and the mixture was incubated at 37° C. for 30 minutes. […] This made it possible to evaluate the anti-tumor activity of the antibody due to its ability to promote the cytotoxic activity of PBMCs.

affinity for human CD39 on the cell surface (human CD39): favorable affinity
B1: P4_h1lala: chimeric antibody with VH and Vκ of P4_sc, human IgG1-lala (Fc silent) and human light chain constant region (antibody)
heavy: QVQLKESGPSLVQPSQSLSITCTVSGFSLTNYGVHWVRQSPGKGLEWLGVILRRGSTDYNAAFMSRLSITKDNSKSQVFFKMNSLQADDTAIYYCAKTAVVAGDYFDYWGQGTTLTVSSASTKGPSVFPLAPSSKSTSGGTAALGCLVKDYFPEPVTVSWNSGALTSGVHTFPAVLQSSGLYSLSSVVTVPSSSLGTQTYICNVNHKPSNTKVDKKV[human IgG1 Fc with changes skipped]
light: DIVMTQSHKFMSTSVGDRVSVTCKASQNVGTNVAWYQQKPGQSPKALIYSASYRYSGVPDRFTGSGSGTDFTLTISNVQSEDLAEYFCQQYNSYPLTFGTGTKLEIKRTVAAPSVFIFPPSDEQLKSGTASVVCLLNNFYPREAKVQWKVDNALQSGNSQESVTEQDSKDSTYSLSSTLTLSKADYEKHKVYACEVTHQGLSSPVTKSFNRGEC
overall difference in cancer cell growth compared to isotype control [1]: large
time after treatment at which a difference to the isotype control starts to appear [1]: about 20 hours
